# Laboratory results taken from the supplement of paper PMC8728848.
# Some of the results follow.
# B1: Langerin (Homo sapiens), Q9UJ71 (protein)
# chain: STLNAQIPELKSDLEKASALNTKIRALQGSLENMSKLLKRQNDILQVVSQGWKYFKGNFYYFSLIPKTWYSAEQFCVSRNSHLTSVTSESEQEFLYKTAGGLIYWIGLTKAGMEGDWSWVDDTPFNKVQSARFWIPGEPNDAGNNEHCGNIKAPSLQAWNDAPCDITFLFICKRPYVPSEP
# Assays:
# Assay in all cases: glycan array binding signal (z-score within array); higher = stronger binding
# Settings in all cases: glycan notation: IUPAC condensed, linker removed; mutation: N288D, K313I
# Glc(b1-4)Glc = target: Glc(b1-4)Glc
# Method in brief: (§1)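 Columns mapping to the same glycan were averaged after glycan names were converted to IUPAC-condensed notation. The data come from 3228 arrays in the Consortium for Functional Glycomics database, limited to those with an available protein sequence. Binding is reported as a within-array Z-score averaged across arrays of one protein sequence and across linkers.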
# Glc(b1-6)Glc = target: Glc(b1-6)Glc
# Method in brief: as §1
# GlcA(b1-3)Gal = target: GlcA(b1-3)Gal
# Method in brief: as §1
# GlcA(b1-3)GlcNAc = target: GlcA(b1-3)GlcNAc
# Method in brief: as §1
# GlcA(b1-6)Gal = target: GlcA(b1-6)Gal
# Method in brief: as §1
# [1] = target: GlcA3S(b1-3)Gal(b1-4)GlcNAc(b1-2)Man
# Method in brief: as §1
# [2] = target: GlcA3S(b1-3)Gal(b1-4)GlcNAc(b1-3)Gal(b1-4)Glc
# Method in brief: as §1
# [3] = target: GlcNAc(a1-3)Gal(b1-4)GlcNAc
# Method in brief: as §1
# [4] = target: GlcNAc(a1-4)Gal(b1-3)GlcNAc
# Method in brief: as §1
# [5] = target: GlcNAc(a1-4)Gal(b1-4)GalNAc
# Method in brief: as §1
# [6] = target: GlcNAc(a1-4)Gal(b1-4)GlcNAc
# Method in brief: as §1
# [7] = target: GlcNAc(a1-4)Gal(b1-4)GlcNAc(b1-3)Gal(b1-4)Glc
# Method in brief: as §1
# [8] = target: GlcNAc(a1-4)Gal(b1-4)GlcNAc(b1-3)Gal(b1-4)GlcNAc
# Method in brief: as §1
# [9] = target: GlcNAc(a1-4)Gal(b1-4)GlcNAc(b1-3)Gal(b1-4)GlcNAc(b1-3)Gal(b1-4)GlcNAc
# Method in brief: as §1
# [10] = target: GlcNAc(a1-4)Gal(b1-4)GlcNAc(b1-3)Gal(b1-4)[Fuc(a1-3)]GlcNAc(b1-3)Gal(b1-4)[Fuc(a1-3)]GlcNAc
# Method in brief: as §1
# [11] = target: GlcNAc(a1-6)Gal(b1-4)GlcNAc
# Method in brief: as §1
# [12] = target: GlcNAc(b1-2)Gal(b1-3)GalNAc
# Method in brief: as §1
# [13] = target: GlcNAc(b1-2)Man(a1-3)[GlcNAc(b1-2)Man(a1-6)]Man(b1-4)GlcNAc(b1-4)GlcNAc
# Method in brief: as §1
# [14] = target: GlcNAc(b1-2)Man(a1-3)[GlcNAc(b1-2)Man(a1-6)]Man(b1-4)GlcNAc(b1-4)[Fuc(a1-6)]GlcNAc
# Method in brief: as §1
# [15] = target: GlcNAc(b1-2)Man(a1-3)[GlcNAc(b1-4)][GlcNAc(b1-2)Man(a1-6)]Man(b1-4)GlcNAc(b1-4)GlcNAc
# Method in brief: as §1
# [16] = target: GlcNAc(b1-2)Man(a1-3)[GlcNAc(b1-4)][GlcNAc(b1-2)Man(a1-6)]Man(b1-4)GlcNAc(b1-4)[Fuc(a1-6)]GlcNAc
# Method in brief: as §1
# [17] = target: GlcNAc(b1-2)[GlcNAc(b1-4)]Man(a1-3)[GlcNAc(b1-2)Man(a1-6)]Man(b1-4)GlcNAc(b1-4)GlcNAc
# Method in brief: as §1
# [18] = target: GlcNAc(b1-2)[GlcNAc(b1-4)]Man(a1-3)[GlcNAc(b1-4)][GlcNAc(b1-2)Man(a1-6)]Man(b1-4)GlcNAc(b1-4)GlcNAc
# Method in brief: as §1
# [19] = target: GlcNAc(b1-2)[GlcNAc(b1-4)]Man(a1-3)[GlcNAc(b1-4)][GlcNAc(b1-2)[GlcNAc(b1-6)]Man(a1-6)]Man(b1-4)GlcNAc(b1-4)GlcNAc
# Method in brief: as §1
# [20] = target: GlcNAc(b1-2)[GlcNAc(b1-4)]Man(a1-3)[GlcNAc(b1-4)][GlcNAc(b1-2)[GlcNAc(b1-6)]Man(a1-6)]Man(b1-4)GlcNAc(b1-4)[Fuc(a1-6)]GlcNAc
# Method in brief: as §1
# [21] = target: GlcNAc(b1-2)[GlcNAc(b1-6)]Man(a1-6)[GlcNAc(b1-2)Man(a1-3)]Man(b1-4)GlcNAc(b1-4)GlcNAc
# Method in brief: as §1
# [22] = target: GlcNAc(b1-2)[GlcNAc(b1-6)]Man(a1-6)[GlcNAc(b1-2)Man(a1-3)]Man(b1-4)GlcNAc(b1-4)[Fuc(a1-6)]GlcNAc
# Method in brief: as §1
# [23] = target: GlcNAc(b1-2)[GlcNAc(b1-6)]Man(a1-6)[GlcNAc(b1-4)][GlcNAc(b1-2)Man(a1-3)]Man(b1-4)GlcNAc(b1-4)GlcNAc
# Method in brief: as §1
# GlcNAc(b1-3)Fuc = target: GlcNAc(b1-3)Fuc
# Method in brief: as §1
# GlcNAc(b1-3)Gal = target: GlcNAc(b1-3)Gal
# Method in brief: as §1
# [24] = target: GlcNAc(b1-3)Gal(b1-3)GalNAc
# Method in brief: as §1
# GlcNAc(b1-3)Gal(b1-4)Glc = target: GlcNAc(b1-3)Gal(b1-4)Glc
# Method in brief: as §1
# [25] = target: GlcNAc(b1-3)Gal(b1-4)GlcNAc
# Method in brief: as §1
# [26] = target: GlcNAc(b1-3)Gal(b1-4)GlcNAc(b1-2)Man(a1-3)[GlcNAc(b1-3)Gal(b1-4)GlcNAc(b1-2)Man(a1-6)]Man(b1-4)GlcNAc(b1-4)GlcNAc
# Method in brief: as §1
# [27] = target: GlcNAc(b1-3)Gal(b1-4)GlcNAc(b1-2)Man(a1-3)[GlcNAc(b1-3)Gal(b1-4)GlcNAc(b1-2)Man(a1-6)]Man(b1-4)GlcNAc(b1-4)[Fuc(a1-6)]GlcNAc
# Method in brief: as §1
# [28] = target: GlcNAc(b1-3)Gal(b1-4)GlcNAc(b1-2)[GlcNAc(b1-3)Gal(b1-4)GlcNAc(b1-6)]Man(a1-6)[GlcNAc(b1-3)Gal(b1-4)GlcNAc(b1-2)Man(a1-3)]Man(b1-4)GlcNAc(b1-4)GlcNAc
# Method in brief: as §1
# [29] = target: GlcNAc(b1-3)Gal(b1-4)GlcNAc(b1-3)Gal(b1-4)GlcNAc
# Method in brief: as §1
# [30] = target: GlcNAc(b1-3)Gal(b1-4)GlcNAc(b1-3)Gal(b1-4)GlcNAc(b1-2)Man(a1-3)[GlcNAc(b1-3)Gal(b1-4)GlcNAc(b1-3)Gal(b1-4)GlcNAc(b1-2)Man(a1-6)]Man(b1-4)GlcNAc(b1-4)GlcNAc
# Method in brief: as §1
# [31] = target: GlcNAc(b1-3)Gal(b1-4)GlcNAc(b1-3)Gal(b1-4)GlcNAc(b1-2)Man(a1-3)[GlcNAc(b1-3)Gal(b1-4)GlcNAc(b1-3)Gal(b1-4)GlcNAc(b1-2)Man(a1-6)]Man(b1-4)GlcNAc(b1-4)[Fuc(a1-6)]GlcNAc
# Method in brief: as §1
# [32] = target: GlcNAc(b1-3)Gal(b1-4)GlcNAc(b1-3)Gal(b1-4)GlcNAc(b1-2)[GlcNAc(b1-3)Gal(b1-4)GlcNAc(b1-3)Gal(b1-4)GlcNAc(b1-6)]Man(a1-6)[GlcNAc(b1-3)Gal(b1-4)GlcNAc(b1-3)Gal(b1-4)GlcNAc(b1-2)Man(a1-3)]Man(b1-4)GlcNAc(b1-4)[Fuc(a1-6)]GlcNAc
# Method in brief: as §1
# [33] = target: GlcNAc(b1-3)Gal(b1-4)GlcNAc(b1-3)Gal(b1-4)GlcNAc(b1-3)Gal(b1-4)GlcNAc(b1-2)Man(a1-3)[GlcNAc(b1-3)Gal(b1-4)GlcNAc(b1-3)Gal(b1-4)GlcNAc(b1-3)Gal(b1-4)GlcNAc(b1-2)Man(a1-6)]Man(b1-4)GlcNAc(b1-4)GlcNAc
# Method in brief: as §1
# [34] = target: GlcNAc(b1-3)Gal(b1-4)GlcNAc(b1-3)Gal(b1-4)GlcNAc(b1-3)Gal(b1-4)GlcNAc(b1-2)Man(a1-3)[GlcNAc(b1-3)Gal(b1-4)GlcNAc(b1-3)Gal(b1-4)GlcNAc(b1-3)Gal(b1-4)GlcNAc(b1-2)Man(a1-6)]Man(b1-4)GlcNAc(b1-4)[Fuc(a1-6)]GlcNAc
# Method in brief: as §1
# [35] = target: GlcNAc(b1-3)Gal(b1-4)GlcNAc(b1-3)Gal(b1-4)GlcNAc(b1-3)Gal(b1-4)GlcNAc(b1-2)[GlcNAc(b1-3)Gal(b1-4)GlcNAc(b1-3)Gal(b1-4)GlcNAc(b1-3)Gal(b1-4)GlcNAc(b1-6)]Man(a1-6)[GlcNAc(b1-3)Gal(b1-4)GlcNAc(b1-3)Gal(b1-4)GlcNAc(b1-3)Gal(b1-4)GlcNAc(b1-2)Man(a1-3)]Man(b1-4)GlcNAc(b1-4)[Fuc(a1-6)]GlcNAc
# Method in brief: as §1
# [36] = target: GlcNAc(b1-3)Gal(b1-4)GlcNAc(b1-3)Gal(b1-4)GlcNAc(b1-3)Gal(b1-4)GlcNAc(b1-3)Gal(b1-4)GlcNAc(b1-2)Man(a1-3)[GlcNAc(b1-3)Gal(b1-4)GlcNAc(b1-3)Gal(b1-4)GlcNAc(b1-3)Gal(b1-4)GlcNAc(b1-3)Gal(b1-4)GlcNAc(b1-2)Man(a1-6)]Man(b1-4)GlcNAc(b1-4)GlcNAc
# Method in brief: as §1
# [37] = target: GlcNAc(b1-3)Gal(b1-4)GlcNAc(b1-3)Gal(b1-4)GlcNAc(b1-3)Gal(b1-4)GlcNAc(b1-3)Gal(b1-4)GlcNAc(b1-2)Man(a1-3)[GlcNAc(b1-3)Gal(b1-4)GlcNAc(b1-3)Gal(b1-4)GlcNAc(b1-3)Gal(b1-4)GlcNAc(b1-3)Gal(b1-4)GlcNAc(b1-2)Man(a1-6)]Man(b1-4)GlcNAc(b1-4)[Fuc(a1-6)]GlcNAc
# Method in brief: as §1
binder,measurement,setting,value
B1,glycan array binding signal (z-score),Glc(b1-4)Glc,-0.223
same,glycan array binding signal (z-score),Glc(b1-6)Glc,-0.225
same,glycan array binding signal (z-score),GlcA(b1-3)Gal,-0.159
same,glycan array binding signal (z-score),GlcA(b1-3)GlcNAc,-0.204
same,glycan array binding signal (z-score),GlcA(b1-6)Gal,0.025
same,glycan array binding signal (z-score),[1],-0.279
same,glycan array binding signal (z-score),[2],-0.12
same,glycan array binding signal (z-score),[3],-0.26
same,glycan array binding signal (z-score),[4],-0.098
same,glycan array binding signal (z-score),[5],-0.031
same,glycan array binding signal (z-score),[6],-0.257
same,glycan array binding signal (z-score),[7],-0.192
same,glycan array binding signal (z-score),[8],-0.155
same,glycan array binding signal (z-score),[9],-0.163
same,glycan array binding signal (z-score),[10],0.433
same,glycan array binding signal (z-score),[11],-0.229
same,glycan array binding signal (z-score),[12],0.319
same,glycan array binding signal (z-score),[13],-0.132
same,glycan array binding signal (z-score),[14],0.186
same,glycan array binding signal (z-score),[15],-0.253
same,glycan array binding signal (z-score),[16],1.18
same,glycan array binding signal (z-score),[17],0.028
same,glycan array binding signal (z-score),[18],0.175
same,glycan array binding signal (z-score),[19],-0.027
same,glycan array binding signal (z-score),[20],1.91
same,glycan array binding signal (z-score),[21],-0.239
same,glycan array binding signal (z-score),[22],0.347
same,glycan array binding signal (z-score),[23],0.046
same,glycan array binding signal (z-score),GlcNAc(b1-3)Fuc,-0.188
same,glycan array binding signal (z-score),GlcNAc(b1-3)Gal,-0.083
same,glycan array binding signal (z-score),[24],-0.036
same,glycan array binding signal (z-score),GlcNAc(b1-3)Gal(b1-4)Glc,-0.073
same,glycan array binding signal (z-score),[25],1.72
same,glycan array binding signal (z-score),[26],-0.225
same,glycan array binding signal (z-score),[27],0.063
same,glycan array binding signal (z-score),[28],2.14
same,glycan array binding signal (z-score),[29],-0.116
same,glycan array binding signal (z-score),[30],0.764
same,glycan array binding signal (z-score),[31],0.439
same,glycan array binding signal (z-score),[32],16.7
same,glycan array binding signal (z-score),[33],0.059
same,glycan array binding signal (z-score),[34],0.409
same,glycan array binding signal (z-score),[35],0.284
same,glycan array binding signal (z-score),[36],-0.051
same,glycan array binding signal (z-score),[37],2.34
